From the supplement of paper PMC11417369
± gives the standard deviation of the averaged measurements. The list shows a part of the results.

System: PfAP2-EXP AP2 domain (GST-tagged)
Assay: gcPBM binding intensity (ln(normalized median fluorescence intensity)); higher = stronger DNA binding
How it was run: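 An Agilent 4 × 180k array of primer-extended double-stranded 36-bp intergenic genomic probes, with negative controls, was incubated for 1 h with GST-tagged P. falciparum DNA-binding domains expressed in E. coli. Alexa488 anti-GST antibody detected bound protein, scanned at 488 nm. Binding intensity is the highest Masliner-normalised natural-log median intensity across replicate spots of either probe orientation.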

Sequence | gcPBM binding intensity (ln)
AAACATCATAAATATACACACATATTTATATTTATA [CACACA_site6437] | 8.35 ± 0.4
CCATAACTCATATGCACACATAAATATTACATATAT [CACACA_site3821] | 8.69 ± 0.18
TTTTAAAAAGAAAAAAATAACATACATATATATATA [CACACA_negctrl_site240] | 9.68 ± 0.28
TTTAATATTTTTTTTTGTACTTATTTGTAGAAATAT [XGTACX_site3046] | 8.6 ± 0.45
CTATTTTTTGTATAAACATGCATATAGTAGATATGG [TGCATGCA_site670] | 8.61 ± 0.26
AGGCTCATTTTTTTTAGTACATCAAAAAAAAAAAAA [TGCATGCA_negctrl_site591] | 8.36 ± 0.18
AAATTCATATGAATTTGTACGGACATAAATATCTTC [XGTACX_site1838] | 8.62 ± 0.33
TGTATGTTTATTTGATGTACGGTCATACATATAAAT [XGTACX_site5176] | 8.68 ± 0.38
ATTCATAATATTATAACACACGCTTATTACATAAAG [CACACA_site980] | 8.64 ± 0.49
TTTTACATATACATGTGTACATAACAAAGAATGTTT [XGTACX_site2406] | 8.47 ± 0.34
CGCATGTATTTTGTGTGTACTAATTATAATCAACTT [XGTACX_site4709] | 8.97 ± 0.51
TTTTTTAATAAATGGTGTACATATTTTTTTTATACT [XGTACX_site8584] | 8.44 ± 0.28
AGTGTATTAATTCTCACACACTAAGAAAAAAAAAAA [CACACA_site6007] | 8.3 ± 0.4
TAATATTGTATTTATGTACACACATTTTTGGAATAT [CACACA_site8371] | 8.55 ± 0.33
CAATCAAATAGACACACACACACCTAAACATAAAAG [CACACA_site7322] | 8.65 ± 0.58
ATATTAAAATGAAAATATAAAAAAAAAAAAAAAAAA [CACACA_negctrl_site1559] | 8.04 ± 0.39
TATATATATAAACACACACACACCAAAGCGTAGCGC [CACACA_site7903] | 9.23 ± 0.057
TATTAATAAAAGCATTGTACAGTAATAAATAAATAA [XGTACX_site2924] | 8.81 ± 0.37
AGCCATTAATTCTCTACACACCTTTATGTTATTTAG [CACACA_site3635] | 8.83 ± 0.44

Sequence | gcPBM binding intensity (ln)
TTTCAAACAAAAAGACGTACACTGAAGTTATCCGTC [XGTACX_site8824] | 8.48 ± 0.31
TTGTATTCATAACAACGTACATATTTTGTAACTAAA [XGTACX_site4029] | 8.42 ± 0.3
AAGGAAATATAATATACACACATAAGTGTACTTCTA [CACACA_site6079] | 8.32 ± 0.3
ACTCATAAAAATAGATGTACTTTAATAATTTGATTT [XGTACX_site8763] | 8.21 ± 0.18
AAAAAAAAAAGACACACACACATATAAATATAAATA [CACACA_site6899] | 8.75 ± 0.38
TCAAACGGTTAAATATGTACATATATATATATATAT [XGTACX_site2339] | 10 ± 0.45
ATATATATTTAAACTACACACGCATATCTTAGAAAT [CACACA_site8348] | 8.62 ± 0.53
ACCCACTTTTGAGGTGTGCACAATAAATTGGACATT | 8.67 ± 0.16
AGGAAAAAAAAAATGACACACATATTTGAATTAAAA [CACACA_site1352] | 8.34 ± 0.54
TAAGAGATATTTTATTAAATGTTTTATGAATCATGT [TGCATGCA_negctrl_site264] | 7.9 ± 0.47
AGTGTGTGTAATAAAGTGCATTAAAAATGACACGTA | 9.13 ± 0.12
GTACATACATAAAACACACACATATAGATTTATATA [CACACA_site6945] | 8.6 ± 0.33
AACACTTCTTATTTATGTACTTAATTCCCAACGGAA [XGTACX_site4818] | 8.87 ± 0.46
ATAAAATATAAAAATTGTACGATAATAATAGTAGGA [XGTACX_site8951] | 8.71 ± 0.26
TATCTCTTCATATTGTGTACATATTTTTATTTATTG [XGTACX_site4038] | 9.11 ± 0.42
AATTACTACATAAATACATGCATAATTATATATATA [TGCATGCA_site783] | 9.03 ± 0.14
AAATATATATATATATATATATATATATATATATAT [CACACA_negctrl_site677] | 10.1 ± 0.36
TTATAAAATTACTTGGTGCATTAGAATATTTCAATA | 8.59 ± 0.13
TGATCAGATAGACACACACACAAAAAAAAAAAAAAA [CACACA_site7805] | 8.03 ± 0.61

Sequence | gcPBM binding intensity (ln)
AAATGAATAAATAAGACACACACGAAAATAAGTAAA [CACACA_site71] | 9.07 ± 0.56
TTTTCTAAATAAATAGTGCATTTATTATATATACAT [GTGCAC_site9766] | 8.65 ± 0.014
TGTTTATTTTTAAAAAGTACATATTTAAAAAACTTC [XGTACX_site271] | 8.28 ± 0.3
CAAAAGAAGGTAAACACACACACACGCATACAAAAA [CACACA_site7724] | 8.91 ± 0.63
ATTTCTCTATCGTAATGTACATAAAAAATGAAAAAA [XGTACX_site1201] | 8.7 ± 0.38
ATAGAATAAAACTATACACACCTATATTTAAACATA [CACACA_site5106] | 8.46 ± 0.33
CAAAACCTTATATGTACACACATATACATCACCCTT [CACACA_site3170] | 8.64 ± 0.39
TATTGTTACTTTATATGTACTAATTAAACATATACA [XGTACX_site6363] | 8.57 ± 0.37
TTGTATTATATTGTATTATGTTTAAATGAAAAAAAA [CACACA_negctrl_site662] | 8.36 ± 0.52
AAAAAAAAAAAAAAAAGTACACAAATTTTAAAAATT [XGTACX_site3006] | 8.64 ± 0.13
AAATATTAGTAACACAGACACACAAAAAAAAAAAAA [CACACA_site2175] | 8.46 ± 0.59
AAAAATACCTTATATATACACACTATGTTTTTCTTT [CACACA_site1192] | 8.71 ± 0.28
AAAAAAAAAAAAAAAACACACATACATACATACATA [CACACA_site6125] | 8.66 ± 0.22
TTTTTTTTTTTTTTTGCACACACCATATTTATAGAA [CACACA_site3310] | 8.51 ± 0.25
AGAAAAGTGATATATACACACTTATATTTATTTATA [CACACA_site7350] | 8.22 ± 0.35
TTAAATGATGTAAACACACACATATACATTATTATA [CACACA_site3162] | 8.31 ± 0.33
TATTGTCTATAATAAACACACAATATTAAAAATATA [CACACA_site6624] | 8.21 ± 0.45
ATCTTTCCTATTTGTAGTACAAAAAAAAAAAAAAAA [XGTACX_site5485] | 8.44 ± 0.18
TTTTATAAGGTGAAAAGTACATATAACTTATTTTAC [XGTACX_site5572] | 8.36 ± 0.37
